# Experimental data from the supplement of paper PMC8728848.
# The list shows a part of the results.
# B1: GNL (Galanthus nivalis) (protein)
# chain: MGHHHHHHHHYGTLENGHWLMVGMSIFSKDRTVELRMQDDGKLAIYYNDHCAWQSTAQQVNNAKGAVMQGDGNFCIYDKNGKATWHTNTAAPSGDSHTFVSVQDDGNLVLYKNNGATPIWSSKSNK
# Columns and labels:
# Assay in all cases: glycan array binding signal (z-score within array); higher = stronger binding
# Conditions in all cases: glycan notation: IUPAC condensed, linker removed
# [1] = target: Gal(b1-4)GlcNAc(b1-3)Gal(b1-4)GlcNAc(b1-2)[Gal(b1-4)GlcNAc(b1-3)Gal(b1-4)GlcNAc(b1-6)]Man(a1-6)[Gal(b1-4)GlcNAc(b1-3)Gal(b1-4)GlcNAc(b1-2)Man(a1-3)]Man(b1-4)GlcNAc(b1-4)GlcNAc
# Summary of the method: (§1)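 Glycan array data were curated from 3228 arrays in the Consortium for Functional Glycomics database and kept only where the protein sequence was available. Glycan names were converted to IUPAC-condensed notation, and columns mapping to the same glycan were averaged. The binding signal is a within-array Z-score, averaged across arrays of the same protein sequence at different concentrations or buffers and across linkers. Negative Z-scores can be read as non-binding.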
# [2] = target: Gal(b1-4)GlcNAc(b1-3)Gal(b1-4)GlcNAc(b1-2)[Gal(b1-4)GlcNAc(b1-3)Gal(b1-4)GlcNAc(b1-6)]Man(a1-6)[Gal(b1-4)GlcNAc(b1-3)Gal(b1-4)GlcNAc(b1-2)Man(a1-3)]Man(b1-4)GlcNAc(b1-4)[Fuc(a1-6)]GlcNAc
# Summary of the method: as §1
# [3] = target: Gal(b1-4)GlcNAc(b1-3)Gal(b1-4)GlcNAc(b1-3)Gal(b1-4)GlcNAc
# Summary of the method: as §1
# [4] = target: Gal(b1-4)GlcNAc(b1-3)Gal(b1-4)GlcNAc(b1-3)Gal(b1-4)GlcNAc(b1-2)Man(a1-3)[Gal(b1-4)GlcNAc(b1-3)Gal(b1-4)GlcNAc(b1-3)Gal(b1-4)GlcNAc(b1-2)Man(a1-6)]Man(b1-4)GlcNAc(b1-4)GlcNAc
# Summary of the method: as §1
# [5] = target: Gal(b1-4)GlcNAc(b1-3)Gal(b1-4)GlcNAc(b1-3)Gal(b1-4)GlcNAc(b1-2)Man(a1-3)[Gal(b1-4)GlcNAc(b1-3)Gal(b1-4)GlcNAc(b1-3)Gal(b1-4)GlcNAc(b1-2)Man(a1-6)]Man(b1-4)GlcNAc(b1-4)[Fuc(a1-6)]GlcNAc
# Summary of the method: as §1
# [6] = target: Gal(b1-4)GlcNAc(b1-3)Gal(b1-4)GlcNAc(b1-3)Gal(b1-4)GlcNAc(b1-2)[Gal(b1-4)GlcNAc(b1-3)Gal(b1-4)GlcNAc(b1-3)Gal(b1-4)GlcNAc(b1-6)]Man(a1-6)[Gal(b1-4)GlcNAc(b1-3)Gal(b1-4)GlcNAc(b1-3)Gal(b1-4)GlcNAc(b1-2)Man(a1-3)]Man(b1-4)GlcNAc(b1-4)[Fuc(a1-6)]GlcNAc
# Summary of the method: as §1
# [7] = target: Gal(b1-4)GlcNAc(b1-3)Gal(b1-4)GlcNAc(b1-3)Gal(b1-4)GlcNAc(b1-3)Gal(b1-4)GlcNAc(b1-2)Man(a1-3)[Gal(b1-4)GlcNAc(b1-3)Gal(b1-4)GlcNAc(b1-3)Gal(b1-4)GlcNAc(b1-3)Gal(b1-4)GlcNAc(b1-2)Man(a1-6)]Man(b1-4)GlcNAc(b1-4)GlcNAc
# Summary of the method: as §1
# [8] = target: Gal(b1-4)GlcNAc(b1-3)Gal(b1-4)GlcNAc(b1-3)Gal(b1-4)GlcNAc(b1-3)Gal(b1-4)GlcNAc(b1-2)Man(a1-3)[Gal(b1-4)GlcNAc(b1-3)Gal(b1-4)GlcNAc(b1-3)Gal(b1-4)GlcNAc(b1-3)Gal(b1-4)GlcNAc(b1-2)Man(a1-6)]Man(b1-4)GlcNAc(b1-4)[Fuc(a1-6)]GlcNAc
# Summary of the method: as §1
# [9] = target: Gal(b1-4)GlcNAc(b1-3)Gal(b1-4)GlcNAc(b1-3)Gal(b1-4)GlcNAc(b1-3)Gal(b1-4)GlcNAc(b1-2)[Gal(b1-4)GlcNAc(b1-3)Gal(b1-4)GlcNAc(b1-3)Gal(b1-4)GlcNAc(b1-3)Gal(b1-4)GlcNAc(b1-6)]Man(a1-6)[Gal(b1-4)GlcNAc(b1-3)Gal(b1-4)GlcNAc(b1-3)Gal(b1-4)GlcNAc(b1-3)Gal(b1-4)GlcNAc(b1-2)Man(a1-3)]Man(b1-4)GlcNAc(b1-4)[Fuc(a1-6)]GlcNAc
# Summary of the method: as §1
# [10] = target: Gal(b1-4)GlcNAc(b1-3)Gal(b1-4)GlcNAc(b1-3)Gal(b1-4)GlcNAc(b1-3)Gal(b1-4)GlcNAc(b1-3)Gal(b1-4)GlcNAc(b1-2)Man(a1-3)[Gal(b1-4)GlcNAc(b1-3)Gal(b1-4)GlcNAc(b1-3)Gal(b1-4)GlcNAc(b1-3)Gal(b1-4)GlcNAc(b1-3)Gal(b1-4)GlcNAc(b1-2)Man(a1-6)]Man(b1-4)GlcNAc(b1-4)GlcNAc
# Summary of the method: as §1
# [11] = target: Gal(b1-4)GlcNAc(b1-3)Gal(b1-4)GlcNAc(b1-3)Gal(b1-4)GlcNAc(b1-3)Gal(b1-4)GlcNAc(b1-3)Gal(b1-4)GlcNAc(b1-2)Man(a1-3)[Gal(b1-4)GlcNAc(b1-3)Gal(b1-4)GlcNAc(b1-3)Gal(b1-4)GlcNAc(b1-3)Gal(b1-4)GlcNAc(b1-3)Gal(b1-4)GlcNAc(b1-2)Man(a1-6)]Man(b1-4)GlcNAc(b1-4)[Fuc(a1-6)]GlcNAc
# Summary of the method: as §1
# [12] = target: Gal(b1-4)GlcNAc(b1-3)Gal(b1-4)GlcNAc(b1-3)Gal(b1-4)GlcNAc(b1-3)Gal(b1-4)GlcNAc(b1-3)Gal(b1-4)GlcNAc(b1-2)[Gal(b1-4)GlcNAc(b1-3)Gal(b1-4)GlcNAc(b1-3)Gal(b1-4)GlcNAc(b1-3)Gal(b1-4)GlcNAc(b1-3)Gal(b1-4)GlcNAc(b1-6)]Man(a1-6)[Gal(b1-4)GlcNAc(b1-3)Gal(b1-4)GlcNAc(b1-3)Gal(b1-4)GlcNAc(b1-3)Gal(b1-4)GlcNAc(b1-3)Gal(b1-4)GlcNAc(b1-2)Man(a1-3)]Man(b1-4)GlcNAc(b1-4)[Fuc(a1-6)]GlcNAc
# Summary of the method: as §1
# [13] = target: Gal(b1-4)GlcNAc(b1-3)Gal(b1-4)GlcNAc(b1-3)Gal(b1-4)GlcNAc(b1-3)Gal(b1-4)GlcNAc(b1-3)Gal(b1-4)GlcNAc(b1-3)Gal(b1-4)GlcNAc(b1-2)Man(a1-3)[Gal(b1-4)GlcNAc(b1-3)Gal(b1-4)GlcNAc(b1-3)Gal(b1-4)GlcNAc(b1-3)Gal(b1-4)GlcNAc(b1-3)Gal(b1-4)GlcNAc(b1-3)Gal(b1-4)GlcNAc(b1-2)Man(a1-6)]Man(b1-4)GlcNAc(b1-4)GlcNAc
# Summary of the method: as §1
# [14] = target: Gal(b1-4)GlcNAc(b1-3)Gal(b1-4)GlcNAc(b1-3)GalNAc
# Summary of the method: as §1
# [15] = target: Gal(b1-4)GlcNAc(b1-3)Gal(b1-4)GlcNAc(b1-3)[Gal(b1-4)GlcNAc(b1-3)Gal(b1-4)GlcNAc(b1-6)]GalNAc
# Summary of the method: as §1
# [16] = target: Gal(b1-4)GlcNAc(b1-3)Gal(b1-4)GlcNAc(b1-6)[Gal(b1-3)]GalNAc
# Summary of the method: as §1
# [17] = target: Gal(b1-4)GlcNAc(b1-3)Gal(b1-4)[Fuc(a1-3)]GlcNAc(b1-3)Gal(b1-4)[Fuc(a1-3)]GlcNAc
# Summary of the method: as §1
# [18] = target: Gal(b1-4)GlcNAc(b1-3)GalNAc
# Summary of the method: as §1
# [19] = target: Gal(b1-4)GlcNAc(b1-3)[Fuc(a1-3)GlcNAc(b1-6)]Gal(b1-4)Glc
# Summary of the method: as §1
# [20] = target: Gal(b1-4)GlcNAc(b1-3)[Gal(b1-4)GlcNAc(b1-6)]Gal(b1-4)GlcNAc
# Summary of the method: as §1
# [21] = target: Gal(b1-4)GlcNAc(b1-3)[GlcNAc(b1-6)]Gal(b1-4)GlcNAc
# Summary of the method: as §1
# [22] = target: Gal(b1-4)GlcNAc(b1-6)Gal(b1-4)GlcNAc
# Summary of the method: as §1
# [23] = target: Gal(b1-4)GlcNAc(b1-6)GalNAc
# Summary of the method: as §1
# [24] = target: Gal(b1-4)GlcNAc(b1-6)[Gal(b1-3)]GalNAc
# Summary of the method: as §1
# [25] = target: Gal(b1-4)GlcNAc(b1-6)[Gal(b1-4)GlcNAc(b1-3)]GalNAc
# Summary of the method: as §1
# Gal(b1-4)GlcNAc6P = target: Gal(b1-4)GlcNAc6P
# Summary of the method: as §1
# Gal(b1-6)Gal = target: Gal(b1-6)Gal
# Summary of the method: as §1
# Gal3S(b1-3)GalNAc = target: Gal3S(b1-3)GalNAc
# Summary of the method: as §1
# Gal3S(b1-3)GlcNAc = target: Gal3S(b1-3)GlcNAc
# Summary of the method: as §1
# [26] = target: Gal3S(b1-3)[Fuc(a1-4)]GlcNAc
# Summary of the method: as §1
# Gal3S(b1-4)Glc = target: Gal3S(b1-4)Glc
# Summary of the method: as §1
# Gal3S(b1-4)Glc6S = target: Gal3S(b1-4)Glc6S
# Summary of the method: as §1
# Gal3S(b1-4)GlcNAc = target: Gal3S(b1-4)GlcNAc
# Summary of the method: as §1
# [27] = target: Gal3S(b1-4)[Fuc(a1-3)]Glc6S
# Summary of the method: as §1
# [28] = target: Gal3S(b1-4)[Fuc(a1-3)]GlcNAc
# Summary of the method: as §1
# [29] = target: Gal3S(b1-4)[Fuc(a1-3)]GlcNAc6S
# Summary of the method: as §1
# Gal3S4S(b1-4)GlcNAc = target: Gal3S4S(b1-4)GlcNAc
# Summary of the method: as §1
# Gal3S6S(b1-4)GlcNAc = target: Gal3S6S(b1-4)GlcNAc
# Summary of the method: as §1
# Gal3S6S(b1-4)GlcNAc6S = target: Gal3S6S(b1-4)GlcNAc6S
# Summary of the method: as §1
# Gal4S(b1-4)GlcNAc = target: Gal4S(b1-4)GlcNAc
# Summary of the method: as §1
# Gal4S6S(b1-4)GlcNAc = target: Gal4S6S(b1-4)GlcNAc
# Summary of the method: as §1
# Gal6P(b1-4)GlcNAc = target: Gal6P(b1-4)GlcNAc
# Summary of the method: as §1
# Gal6S(b1-3)GlcNAc = target: Gal6S(b1-3)GlcNAc
# Summary of the method: as §1
# Gal6S(b1-3)GlcNAc6S = target: Gal6S(b1-3)GlcNAc6S
# Summary of the method: as §1
# Gal6S(b1-4)Glc = target: Gal6S(b1-4)Glc
# Summary of the method: as §1
binder,measurement,setting,value
B1,glycan array binding signal (z-score),[1],-0.146
same,glycan array binding signal (z-score),[2],-0.241
same,glycan array binding signal (z-score),[3],-0.242
same,glycan array binding signal (z-score),[4],0.206
same,glycan array binding signal (z-score),[5],0.811
same,glycan array binding signal (z-score),[6],-0.2
same,glycan array binding signal (z-score),[7],0.086
same,glycan array binding signal (z-score),[8],0.206
same,glycan array binding signal (z-score),[9],-0.059
same,glycan array binding signal (z-score),[10],0.054
same,glycan array binding signal (z-score),[11],0.088
same,glycan array binding signal (z-score),[12],-0.148
same,glycan array binding signal (z-score),[13],0.001
same,glycan array binding signal (z-score),[14],-0.23
same,glycan array binding signal (z-score),[15],-0.222
same,glycan array binding signal (z-score),[16],-0.128
same,glycan array binding signal (z-score),[17],-0.223
same,glycan array binding signal (z-score),[18],-0.205
same,glycan array binding signal (z-score),[19],-0.203
same,glycan array binding signal (z-score),[20],-0.254
same,glycan array binding signal (z-score),[21],-0.313
same,glycan array binding signal (z-score),[22],-0.222
same,glycan array binding signal (z-score),[23],-0.158
same,glycan array binding signal (z-score),[24],-0.166
same,glycan array binding signal (z-score),[25],-0.12
same,glycan array binding signal (z-score),Gal(b1-4)GlcNAc6P,-0.248
same,glycan array binding signal (z-score),Gal(b1-6)Gal,-0.148
same,glycan array binding signal (z-score),Gal3S(b1-3)GalNAc,-0.242
same,glycan array binding signal (z-score),Gal3S(b1-3)GlcNAc,-0.195
same,glycan array binding signal (z-score),[26],-0.15
same,glycan array binding signal (z-score),Gal3S(b1-4)Glc,-0.164
same,glycan array binding signal (z-score),Gal3S(b1-4)Glc6S,-0.206
same,glycan array binding signal (z-score),Gal3S(b1-4)GlcNAc,-0.175
same,glycan array binding signal (z-score),[27],0.021
same,glycan array binding signal (z-score),[28],-0.241
same,glycan array binding signal (z-score),[29],-0.23
same,glycan array binding signal (z-score),Gal3S4S(b1-4)GlcNAc,-0.212
same,glycan array binding signal (z-score),Gal3S6S(b1-4)GlcNAc,-0.033
same,glycan array binding signal (z-score),Gal3S6S(b1-4)GlcNAc6S,-0.07
same,glycan array binding signal (z-score),Gal4S(b1-4)GlcNAc,-0.212
same,glycan array binding signal (z-score),Gal4S6S(b1-4)GlcNAc,-0.223
same,glycan array binding signal (z-score),Gal6P(b1-4)GlcNAc,-0.253
same,glycan array binding signal (z-score),Gal6S(b1-3)GlcNAc,-0.225
same,glycan array binding signal (z-score),Gal6S(b1-3)GlcNAc6S,0.245
same,glycan array binding signal (z-score),Gal6S(b1-4)Glc,-0.224
